Earlier results, collected in publication PMC11852049, “Impact of Hydrophobic, Hydrophilic, and Mucus-Binding Motifs on the Therapeutic Potential of Ceftazidime Analogs for Pulmonary Administration” (Antibiotics, 2025).

Details: cited from earlier work

## CC(C)(O/N=C(\C(=O)N[C@@H]1C(=O)N2C(C(=O)[O-])=C(C[n+]3ccccc3)CS[C@H]12)c1csc(N)n1)C(=O)O [Ceftazidime pentahydrate, ceftazidime pentahydrate, reference compound]
  LogP: −1.60
